Results reported in PubChem BioAssay AID488969 (Vanderbilt High Throughput Screening Facility, 2010).
Over roughly 110,000 compounds, “z-score” has its median near -0.1; the highest 2% begin near 2. The list shows a part of the results. Activity calls are given as the source filed them.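 Rule for the calls: active = z-score in the third read window above 3 or below -3; inactive = the rest.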

Biological target: Metabotropic glutamate receptor 8 (Rattus norvegicus) (UniProt P70579)
Assay: mGluR8 Gi/Go-coupled signaling modulation – cell-based, rat, thallium flux, HTS, primary screen (AID 488969)
Conditions: HEK293 rat mGluR8, GIRK (G protein-gated inwardly rectifying potassium channel) thallium flux, FluoZin2; at 10 µM; stronger effect = higher value; submaximal glutamate (EC20) added with thallium

Chain of UniProt P70579 (P70579 whole entry, looked up): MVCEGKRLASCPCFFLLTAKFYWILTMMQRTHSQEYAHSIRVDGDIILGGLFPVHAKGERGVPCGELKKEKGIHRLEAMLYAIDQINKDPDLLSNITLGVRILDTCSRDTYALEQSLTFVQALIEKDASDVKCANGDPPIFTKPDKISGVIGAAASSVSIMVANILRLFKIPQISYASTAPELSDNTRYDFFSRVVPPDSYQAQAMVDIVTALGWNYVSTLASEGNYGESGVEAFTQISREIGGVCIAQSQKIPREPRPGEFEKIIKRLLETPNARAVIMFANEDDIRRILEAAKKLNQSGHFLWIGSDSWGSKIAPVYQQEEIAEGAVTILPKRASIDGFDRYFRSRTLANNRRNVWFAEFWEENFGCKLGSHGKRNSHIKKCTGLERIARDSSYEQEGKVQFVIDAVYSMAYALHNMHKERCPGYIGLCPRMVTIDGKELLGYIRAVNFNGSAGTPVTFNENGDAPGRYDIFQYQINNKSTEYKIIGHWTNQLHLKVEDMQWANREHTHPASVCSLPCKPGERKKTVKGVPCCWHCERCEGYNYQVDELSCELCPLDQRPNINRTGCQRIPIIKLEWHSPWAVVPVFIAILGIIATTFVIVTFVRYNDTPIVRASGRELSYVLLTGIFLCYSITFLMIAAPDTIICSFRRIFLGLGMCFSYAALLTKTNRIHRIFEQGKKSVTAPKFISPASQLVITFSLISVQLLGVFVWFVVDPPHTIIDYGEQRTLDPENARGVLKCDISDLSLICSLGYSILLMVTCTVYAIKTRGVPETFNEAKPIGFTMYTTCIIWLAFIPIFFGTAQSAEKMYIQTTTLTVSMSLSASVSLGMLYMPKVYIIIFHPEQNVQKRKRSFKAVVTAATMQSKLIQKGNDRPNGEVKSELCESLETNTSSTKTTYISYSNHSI

Structure (SMILES) | z-score
Cc1ccc(-n2c(C)cc(C(=O)CSc3n[nH]c(N)n3)c2C)cc1 | -0.147
Nc1nonc1N1CCCCC1 | 0.423
COc1ccc(OCCC(=O)OCC(=O)NCc2ccccc2)cc1 | -0.332
Cc1cc2c(c(=O)o1)C1(C(=O)N(CC(=O)O)c3ccccc31)C(C#N)=C(N)O2 (centres undefined) | -0.219
COc1cc(C(=O)NCc2ccco2)cc(OC)c1OC | -0.0377
CCOC(=O)N1CCN(S(=O)(=O)c2ccc(C)c(C)c2C)CC1 | -0.151
CC(/C=N\N1CCN(Cc2ccc(C)cc2)CC1)=C\c1ccccc1 | -0.207
CCCC/C(O)=N\S(=O)(=O)c1ccc(N=NN(C)C)cc1 | 0.315
CC1CN(c2cc3nccnc3cc2F)CC(C)O1 (centres undefined) | -0.122
O=C(OC(C(=O)NCc1cccs1)c1ccccc1F)c1ccco1 (centres undefined) | 0.631
CC1(C)C(=O)NCCN1C(=O)CSc1nccc(-c2ccc(Br)cc2)n1 | 0.0525
CCn1c(SCC(=O)Nc2nc(C)cs2)nnc1C(C)NC(=O)c1ccccc1 (centres undefined) | 0.172
O=C(CO/N=C/c1ccccc1OC(F)F)N1CCc2ccccc21 | -0.112
CCN(CC)c1ccc(Nc2nc(N3CCOCC3)c3ccccc3n2)cc1 | 1.01
Cc1c(CCC(C)C)c(=O)n2c([nH]c3ccccc32)c1C#N | -0.498
CCC(=O)N1CCN(c2ccccc2NC(=O)COc2cc(C)ccc2C(C)C)CC1 | 0.696
Cc1cc(C)n(CC2CC(=O)N(c3cc(Cl)cc(Cl)c3)C2=O)n1 (centres undefined) | -0.198
O=C(c1ccccc1)N1CCSC1=S | 0.162
CC(=O)NC1C(OCc2ccccc2)OC(CO)C(OC(C)=O)C1OC(C)=O (centres undefined) | -0.161
Cc1cc2c(cc1C)NC(c1nc3ccccc3[nH]1)C1=C(CC(C)(C)CC1=O)N2 (centres undefined) | -0.125
O=C(NCc1ccco1)c1ccc2c(c1)C(=O)N(C1CCCCC1)C2=O | -0.402
COc1ccnc(Oc2ccccc2)n1 | -0.163
O=C(CSc1nc2ccccc2o1)N/N=C/c1ccccc1 | 0.038

Structure (SMILES) | z-score
Cc1sc2ncnc(Sc3ccccc3C(=O)Nc3ccccc3Cl)c2c1C | -0.59
Cc1ccc(-c2cc(-c3ccc4c(c3)OCO4)c(C#N)c(N)n2)o1 | -0.218
COc1ccc2cc(C3(C)NC(=O)NC3=O)ccc2c1 (centres undefined) | 0.398
CCCS(=O)(=O)N1CCCC(C(=O)NCCN2CCOCC2)C1 (centres undefined) | -0.118
O=C(c1ccccc1)N1CCN=C1SCc1ccc([N+](=O)[O-])cc1 | -0.311
CCCCCn1c(=O)[nH]c2cc(C(=O)NCc3ccco3)ccc2c1=O | -0.38
O=C(/C=C/c1ccccc1)N(c1ccccn1)C1CCCCC1 | 0.69
CCOC(=O)C(=CNc1cc(C)nn1-c1ccc(Cl)cc1)C(=O)OCC | -1.9
CCC(=O)Nc1ccc(N2CCN(C(=O)c3ccccc3C)CC2)cc1 | -0.238
O=C(CC12CC3CC(CC(C3)C1)C2)NCc1ccncc1 | -0.278
Cc1ccc2cc(C#N)c(SCC(=O)Nc3ccc4sc(C)nc4c3)nc2c1 | -0.000728
CS(=O)(=O)N(CC(=O)N1CCc2ccccc2C1)c1ccc2c(c1)OCO2 | -0.346
C=CCNC1=C(Cl)C(=O)N(c2ccccc2Cl)C1=O | -0.236
COC(Cc1nnc(SC)n1-c1ccccc1)OC | -0.151
Cc1cc(C(=O)COC(=O)CCc2nc3ccccc3s2)c(C)n1C | -0.552
C/C(=N\NC(=O)c1cccc(F)c1)c1ccc(Br)s1 | active: 7.29
CCOC(=O)c1ccc(C(=O)OCC)nc1 | -0.364
S=C(NCCCN1CCOCC1)Nc1ccc(Cl)c(Cl)c1 | 0.303
Cc1sc2c(=O)n3c(nc2c1C(=O)NC1CCCCC1)CCCCC3 | -1.83
Cc1nc2sc3c(O)cc(=O)[nH]c3c2c(C)c1C | -0.397
COC(=O)c1sc2ncccc2c1OCc1c(Cl)cccc1Cl | -0.265
O=C(Nc1ccc(Cc2ccncc2)cc1)c1ccc(Br)o1 | 0.733
O=C(CSc1nc2[nH]ncc2c(=O)[nH]1)N1CCCCC1 | -0.0195

Structure (SMILES) | z-score
O=C(CN1/C(=C(/O)c2ccccc2)C(=O)c2ccccc2S1(=O)=O)c1ccccc1 | 0.815
Cc1nc2cc(NC(=O)NCc3ccco3)ccc2n1C | -0.175
CC(=O)c1c(C)oc2c1C(=O)c1ccccc1C2=O | -0.307
CC1=CC2=NC(=O)/C(=C\c3cccn3CCOc3cc(C)ccc3C)C(=N)N2O1 | 0.0909
CC(C)CCN1CC(O)=C(c2nc3ccccc3[nH]2)C1=N | -0.12
O=C(OCc1ccc(COC(=O)c2ccccn2)cc1)c1ccccn1 | 0.329
Cc1ccc(CCCOC(=O)C[N+]2(C)CCOCC2)cc1 | -0.165
O=C(Cc1ccc(S(=O)(=O)N2CCCC2)s1)Nc1nc2c(s1)CCCC2 | -0.194
Cc1[nH]c2ccccc2c1/C=N/Nc1nc(Nc2ccc(F)cc2)nc(N2CCOCC2)n1 | -0.0514
CCN(CC)S(=O)(=O)c1ccc(NS(=O)(=O)c2ccc(OC)c([N+](=O)[O-])c2)cc1 | 0.00128
C/C(=N/OC(=O)c1ccc(C)cc1)c1ccc(N2C(=O)C3CCCCC3C2=O)cc1 (centres undefined) | -0.131
Nc1[nH]ncc1N=Nc1ccc(Cl)cc1 | -0.104
O=C(NCc1ccccc1)NC1(C(=O)N2CCOCC2)CCCCC1 | 0.474
COc1cc2c(cc1NC(=O)CSc1cccc[n+]1[O-])oc1ccccc12 | -0.555
CCn1c(SCC(=O)N2CCCC2)nnc1-c1ccc(S(=O)(=O)N2CCCCCC2)cc1 | 0.107
O=C(Nc1ccncc1)c1ccc(NS(=O)(=O)c2cccc(F)c2)cc1 | -0.27
O=C(O)CCn1cc(/C=C\C(=O)c2ccc(Cl)cc2)c(-c2cccc(Br)c2)n1 | -0.968
COc1ccc(C(=O)CSc2nc3nc(C)cc(C)n3n2)cc1OC | -0.0891
COC(=O)c1[nH]c2ccc(Br)cc2c1NC(=O)CN1CCCc2ccccc21 | -0.247
Cc1c(C(=O)NCc2ccco2)oc2ccc(S(=O)(=O)N3CCC4(CC3)OCCO4)cc12 | 0.341
CN(c1ccccc1)S(=O)(=O)c1cccc(NC(=O)CSc2ncn[nH]2)c1 | 1.2
CSc1ncc(F)c(N(CCO)CCO)n1 | -0.0744
O=C(CCCn1c(=S)[nH]c2cc3c(cc2c1=O)OCO3)N1CCN(c2ccccc2F)CC1 | -0.102

Structure (SMILES) | z-score
O=C(NCc1ccccn1)NC1CCCCC1 | 0.0749
O=C1c2ccccc2-c2onc3ccc(NCCCn4ccnc4)c1c23 | -0.181
O=C(N/N=C/c1ccc(N2CCOCC2)o1)c1cccc(C(F)(F)F)c1 | 0.388
COc1ccc(-c2csc(N(Cc3ccccc3)C(=O)COc3ccc(Cl)cc3)n2)cc1 | -0.144
O=C(Nc1cccc2ncccc12)c1ccc(F)cc1 | -0.316
Cc1nn(C)cc1C(C(=O)NC1CCCCC1)N(C(=O)Cc1cccs1)c1ccc(Cl)cc1 (centres undefined) | -0.0751
CCOc1ccc(N2CC(C(=O)Nc3ccc(F)cc3F)CC2=O)cc1 (centres undefined) | 0.151
Oc1ccc(Br)cc1C=Nc1ccc2c3c(cccc13)CC2 | -0.099
CC(NCCO)C(=O)C12CC3CC(CC(C3)C1)C2 (centres undefined) | 0.176
O=C(c1cc(Cl)cc(Cl)c1)N1CCOCC1 | 0.403
COC(=O)C(C(=O)OC)c1ccccc1[N+](=O)[O-] | -0.0607
CCN(c1ccccc1)S(=O)(=O)c1ccc(OCC(=O)Nc2cc(C)on2)cc1 | -0.379
COc1ccc(NC(=O)c2ccco2)cc1NC(=O)c1c(F)c(F)c(OC)c(F)c1F | 0.319
CC(=O)NC(C)c1nc2ccccc2n1Cc1ccccc1F (centres undefined) | -0.0574
O=C(c1cc(-c2cccs2)on1)N1CCOCC1 | 0.486
O=C(c1csc(Nc2ccccc2Cl)n1)N1CCCC1 | -0.275
CC(C(=O)NCCN1CCOCC1)c1ccc([N+](=O)[O-])cc1 (centres undefined) | -0.211
CSC(=Nc1ccccc1)C1=C(O)COC1=O | -0.125
C=CCOc1c(Cl)cc(CNc2ccc(N(C)C)cc2)cc1OC | -0.107
[O-][n+]1c2c(c3c4non(O)c4ccc31)CCCC2 | -2.08
Cc1cccc(C(=O)NNC(=O)CN2C(=O)c3ccccc3C2=O)c1 | -0.653
CCN(CC)C(=O)CSC1=Nc2ccccc2C2=NC(Cc3c[nH]c4ccccc34)C(=O)N12 (centres undefined) | 0.0528
COc1cc(C(=O)Oc2ccccc2/C=N/NC(=O)c2ccc(C)c(Cl)c2)cc(OC)c1OC | -0.209

Structure (SMILES) | z-score
COC(=O)c1ccc(C2/C(=C(\O)c3cccc(OC)c3)C(=O)C(=O)N2CCCN2CCOCC2)cc1 (centres undefined) | -0.351
CC(C)(C)C1CCC(=O)C(C2(O)C(=O)Nc3ccccc32)C1 (centres undefined) | -1.21
COc1cccc(-c2cc(C(=O)Nc3cc(C)nn3-c3ccccc3)no2)c1 | 0.234
O=C(COc1ccc(F)cc1Br)N1CCc2ccccc21 | -0.0164
COc1ccc(-n2c(C)c(C(C)=O)c3cc(O)ccc32)cc1 | 0.00998
CCOc1cc(-c2cc(-c3ccccc3)nc(N)c2C#N)ccc1O | -0.618
O=C(CCc1ccc(S(=O)(=O)N2CCOCC2)cc1)Nc1nc(COc2ccccc2)cs1 | -0.371
CCCC(=O)NC1=C(C#N)C2(CCCCC2)Cc2ccccc21 | -0.412
O=C(NNC(=O)C1CC1)c1ccc(-c2ccccc2)cc1 | -0.112
O=C(Cc1ccccc1)N/N=C/c1ccccn1 | -0.244
C/C(Nc1ccccc1)=C(/C#N)C(N)=O | -0.169
O=C(NCc1ccco1)c1ccccc1-c1ccccc1 | -0.248
CC(C)Oc1ccc(N2C(=O)c3ccccc3C2=O)cc1 | -0.397
O=C(NNC(=O)C1CCN(Cc2cccc(F)c2)CC1)c1cccc(Cl)c1 | -0.147
Cc1ccc(OCC(=O)Sc2ccc(C)cc2)cc1 | 0.238
CNC(=O)CSc1nnnn1-c1cc(C)ccc1C | -0.269
O=C(Nc1ccccc1)c1cnc[nH]1 | -0.382
COc1ccc(-c2cc(C(=O)NCc3cccnc3)no2)cc1 | -0.138
CC(C)C(OC(=O)c1cccs1)C(=O)NCc1cccs1 (centres undefined) | 1.86
CCOC(=O)C1(C(F)(F)F)N=C(C(F)(F)F)Nc2ccccc21 (centres undefined) | -0.0217
CC(=O)Nc1ccc(S(=O)(=O)N(C)CCOCc2ccccc2)cc1 | 0.784
COc1ccccc1-n1c(C)nc2cc(C(=O)NCc3ccc4c(c3)OCO4)ccc21 | -0.332
